# Measured values taken from paper PMC4336329 (PLoS ONE, 2015).
# Out of some 310,000 compounds screened, about 2,200 (0.71%) showed an effect of 50% or more. The effect is printed as a negative number. This is one part of the list.
# Biological target: human ether-à-go-go-related gene (hERG) potassium channel (human, UniProt Q12809)
# Experiment: primary screen, population patch clamp on CHO cells stably expressing hERG
# Sequence of human ether-à-go-go-related gene (hERG) potassium channel (Q12809 whole entry, looked up): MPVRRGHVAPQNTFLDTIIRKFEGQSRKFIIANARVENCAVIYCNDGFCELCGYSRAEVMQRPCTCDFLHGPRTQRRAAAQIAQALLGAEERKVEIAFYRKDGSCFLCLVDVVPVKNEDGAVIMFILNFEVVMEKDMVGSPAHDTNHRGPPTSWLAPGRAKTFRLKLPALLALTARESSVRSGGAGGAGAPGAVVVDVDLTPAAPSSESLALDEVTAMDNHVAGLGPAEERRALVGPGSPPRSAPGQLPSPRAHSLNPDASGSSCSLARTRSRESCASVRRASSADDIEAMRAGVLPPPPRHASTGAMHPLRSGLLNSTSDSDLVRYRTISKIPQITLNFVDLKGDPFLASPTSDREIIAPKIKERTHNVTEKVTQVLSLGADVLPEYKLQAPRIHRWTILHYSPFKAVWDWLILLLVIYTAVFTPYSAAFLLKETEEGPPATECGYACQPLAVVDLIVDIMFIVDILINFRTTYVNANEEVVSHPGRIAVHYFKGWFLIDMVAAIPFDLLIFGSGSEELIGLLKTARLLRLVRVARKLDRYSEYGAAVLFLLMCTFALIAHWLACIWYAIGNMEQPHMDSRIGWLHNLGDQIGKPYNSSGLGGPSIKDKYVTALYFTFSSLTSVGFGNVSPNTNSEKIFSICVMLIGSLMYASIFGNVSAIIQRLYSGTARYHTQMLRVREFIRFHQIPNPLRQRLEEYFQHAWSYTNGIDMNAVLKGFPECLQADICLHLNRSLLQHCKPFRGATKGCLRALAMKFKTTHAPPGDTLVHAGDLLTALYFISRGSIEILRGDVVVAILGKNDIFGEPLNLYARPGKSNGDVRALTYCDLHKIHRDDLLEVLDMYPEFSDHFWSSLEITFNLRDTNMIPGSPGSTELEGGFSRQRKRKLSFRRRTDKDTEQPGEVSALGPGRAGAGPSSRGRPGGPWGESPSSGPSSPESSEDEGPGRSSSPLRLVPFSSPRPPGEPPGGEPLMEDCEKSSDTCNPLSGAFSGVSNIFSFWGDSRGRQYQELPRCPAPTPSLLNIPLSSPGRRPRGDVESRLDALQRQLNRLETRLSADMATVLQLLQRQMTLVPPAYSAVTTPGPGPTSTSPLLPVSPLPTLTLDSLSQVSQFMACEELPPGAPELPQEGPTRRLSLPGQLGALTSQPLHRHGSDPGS
row,Compound,"hERG current change (%, negative = inhibition) at 1uM"
1,O=C(O)c1cc([N+](=O)[O-])ccc1NCc1ccccc1,13.9%
2,CCc1nnc2n1N=C(c1ccc(Cl)cc1Cl)CS2,1.51%
3,COC(=O)Cc1ccc(NC(=O)c2ccccc2Cl)cc1,14.2%
4,N#Cc1c(-c2cccnc2)c2c([nH]c1=S)CCCC2,15.3%
5,Cn1c(CNC(=O)c2ccc3c(c2)OCO3)nnc1SCC(=O)Nc1ccccc1F,12.9%
6,COc1ccc(NC(=O)CO/N=C2\CCCc3nonc32)cc1,6.03%
7,CCOc1ccc(NC(=O)c2ccncc2)cc1,19%
8,Cc1ccc(Cl)cc1NC(=O)c1ocnc1C,-4.27%
9,Cc1ccc(S(=O)(=O)CC(=O)Nc2nc(C(C)(C)C)cs2)cc1,4.01%
10,O=C(O)CNc1nc(-c2ccccc2)nc2c1oc1ccccc12,16.5%
11,Cc1ccc(C(=O)OCC(=O)N2CC(=O)Nc3ccccc32)s1,15.9%
12,COc1ccc(NC(=O)c2cc3ccc4c5ccccc5[nH]c4c3cc2O)cc1,9.99%
13,CC(Oc1ccc2ccccc2c1)C(=O)NNC(=O)Nc1ccccc1 (stereo not shown),18%
14,CCn1c(C(=O)Nc2ccsc2C(=O)OC)cc2sc(Cl)cc21,6.85%
15,NC(=O)SCC(=O)Nc1ccccc1C(=O)O,3.41%
16,NC(=O)c1ccccc1NS(=O)(=O)c1ccc(S(=O)(=O)N2CCCC2)cc1,6.39%
17,O=C(COC(=O)C1CC2CCCC(C1)C2=O)Nc1cccc(F)c1 (stereo not shown),-4.61%
18,CC(=O)Nc1cccc(OCCCNS(=O)(=O)c2ccc(F)cc2)c1,1.52%
19,Cc1nc(S/C(=C/c2ccc(-c3cccc(Cl)c3)o2)C(=O)O)n[nH]1,9.55%
20,O=C(NCc1ccccn1)c1cccc(NS(=O)(=O)c2cccc(Cl)c2)c1,14%
21,COc1ccc(CC(=O)Nc2c3c(nn2C(C)(C)C)CS(=O)(=O)C3)cc1,9.94%
22,CC(Sc1nnc(-c2cccnc2)o1)C(=O)NC1CCCCC1 (stereo not shown),16%

row,Compound,"hERG current change (%, negative = inhibition) at 1uM"
1,Cc1cc(Cl)cc(C)c1OCCOCCNCc1ccccc1.O=C(O)C(=O)O,12.1%
2,O=C(CC1C(=O)NCCN1C(=O)Nc1ccccc1)Nc1cccc(Cl)c1 (stereo not shown),-3.91%
3,O=[N+]([O-])c1c(NCCCO)cc(SCc2ccco2)c2nonc12,-3.54%
4,CN1/C(=C\C(=O)Nc2ccc(Br)cc2)C(C)(C)c2ccccc21,7.08%
5,COc1cc(NC(=O)CSc2nccc(=O)[nH]2)c(C)cc1[N+](=O)[O-],15.7%
6,Cl.NNc1nc(-c2ccccc2)cs1,4.94%
7,O=C(NCC1CCCCC1)c1cc(S(=O)(=O)N2CCCCC2)ccc1Cl,-1.03%
8,CC(C)c1ccc(N2C(=O)[C@@H]3Cc4ccccc4CN3C2=O)cc1,22.6%
9,CCOC(=O)Cn1c(=O)c(C#N)cn(C(C)C)c1=O,16.2%
10,Fc1cccc(/C=N/Nc2ccc3ccccc3n2)c1,12.9%
11,CC(=O)Nc1cccc(-c2csc(Nc3cc(C)ccn3)n2)c1,16.3%
12,Cc1cc(NC(c2cccnc2)c2c(C)[nH]c3ccccc23)no1 (stereo not shown),10.1%
13,Cc1ccsc1C(=O)NCc1ccccc1Cl,7.2%
14,CCOC(=O)C1=NN(c2ccc(C)cc2)CC1C(=O)OC (stereo not shown),7.73%
15,CCOC(=O)c1cnc2c(C)cc(C)cc2c1Nc1ccc(S(=O)(=O)Nc2ncccn2)cc1,9.42%
16,Cc1ccc2nc(SCC(=O)Nc3nnc(SCC(N)=O)s3)[nH]c2c1,3.02%
17,C=Cc1c(C)c2cc3[nH]c(cc4nc(cc5nc(cc1[nH]2)C(C)=C5CCC(=O)[O-])C(CCC(=O)[O-])=C4C)c(C)c3C=C.[Na+],13%
18,Cc1ccnc(NC(=O)CCC(=O)N(CC(=O)NC2CCCCC2)c2cccc(C)c2C)c1,4.93%
19,Cc1cc(C)c(NC(=O)CSc2ccc(-c3ccccn3)nn2)c(C)c1,20.3%
20,Cc1cc(NC(=O)CCCC(=O)NCc2cccs2)no1,-3.83%
21,CN(C)c1cccc(C(=O)OCC(=O)Nc2ccccc2-c2ccccc2)c1,3.88%
22,Cc1ccc(NC(=O)c2ccccc2OCC(=O)c2ccc(F)cc2)cc1,3.01%

row,Compound,"hERG current change (%, negative = inhibition) at 1uM"
1,CCCCN1C2=NC(c3ccccc3)CN2c2ccccc21.Cl (stereo not shown),-50.5%
2,CCOC(=O)N1CCN(CC(O)c2ccc3cc[nH]c3c2)CC1 (stereo not shown),-11.5%
3,Cc1ccn2c(=O)nc(SCC(=O)NCc3ccccc3)nc2c1,9.26%
4,O=C(NCc1cccnc1)c1cc2ccccc2oc1=O,2.98%
5,Cc1cc(C)cc(NC(=O)CSc2nnc(-c3cc(C)[nH]n3)n2N)c1,7.21%
6,Cc1ccc(C)c(N2CCN(C(=O)C3CCN(c4nc(C)cc(C)n4)CC3)CC2)c1,1.32%
7,C=CCn1c(SCC(=O)N2CCOCC2)nc2sc3c(c2c1=O)CCCC3,-16%
8,CO[C@H]1C=CO[C@@]2(C)Oc3c(C)c(O)c4c(O)c(c(C=NN5CCN(C)CC5)c(O)c4c3C2=O)NC(=O)C(C)=CC=C[C@H](C)[C@H](O)[C@@H](C)[C@@H](O)[C@@H](C)[C@H](OC(C)=O)[C@@H]1C,4.69%
9,CC1CC(C)(C)NC(=S)N1CC(=O)NCc1ccc2c(c1)OCO2 (stereo not shown),9.61%
10,O=C(NCC1CCCO1)c1ccc2c(c1)N(Cc1ccccc1)C(=O)CS2=O (stereo not shown),10.2%
11,Cc1ccc(Cn2c(=O)n(C)c(=O)c3sccc32)cc1,4.89%
12,S=C(NCC1CCCO1)Nc1cc(Cl)c(Cl)cc1Cl (stereo not shown),13.5%
13,CSc1ncc(C(=O)Nc2cccc(Cl)c2)c(C)n1,7.76%
14,O=c1[nH]nc(SCc2nc3ccccc3s2)n1C1CC1,12%
15,COc1ccc(CC(=O)NC(=S)Nc2cccc(C)c2)cc1,12.4%
16,Cc1cccc(-c2nc(=S)c3c(o2)CCCC3)c1,0.731%
17,O=C(NCc1ccco1)c1cc(-c2ccc(F)cc2)on1,10.9%
18,CCN(CC)CCCNC(=S)N1CCN(c2nc(-c3ccccc3)cs2)CC1,3.99%
19,CCOCCCN(C)C1CCN(C(=O)c2oc3ccccc3c2NC(=O)Cc2cccc([N+](=O)[O-])c2)CC1,-83.8%
20,COC(=O)c1ccn(C(=O)c2ccc(Cl)cc2)n1,4.84%
21,COc1ccccc1NC(=O)CC(=O)c1cccc([N+](=O)[O-])c1,11.2%
22,CCN(CC)CCNc1nc(-c2ccc(OC)cc2)c(-c2ccc(OC)cc2)s1,-1.17%

row,Compound,"hERG current change (%, negative = inhibition) at 1uM"
1,O=[N+]([O-])c1ccc(COc2cccc3cccnc23)cc1,13.3%
2,COc1cc(C(C)=O)ccc1OCc1nnc(-c2ccccc2Br)o1,1.18%
3,CCN(Cc1ccc(OC)c(F)c1)C(=O)c1cc2ccccc2o1,9.54%
4,COC(=O)CCCCCN1C(=O)NC(C2CC2)C(C(=O)OCc2ccccc2)=C1C (stereo not shown),9.64%
5,C/C(=N\NC(=O)c1cccc(S(=O)(=O)N2CCOCC2)c1)c1ccco1,1.87%
6,CCCC(=O)N(c1ccc2oc(C)c(C(C)=O)c2c1)S(=O)(=O)c1ccc(C)c([N+](=O)[O-])c1,1.26%
7,CC(=O)Nc1ccc(S(=O)(=O)NCCC(=O)OCC(=O)c2ccc(F)c(F)c2)cc1,12.4%
8,Cc1nc(N2CCOCC2)[nH]c(=O)c1[N+](=O)[O-],9.2%
9,Cc1cc(=O)n2[nH]c(N3C(=O)CCC3=O)nc2n1,9.01%
10,CCCCc1c(CCC)c(=N)c2ccccc2n1C.I,1.37%
11,Cc1ccc(N2C(=O)C(Cc3ccccc3)NC2=S)cc1 (stereo not shown),-0.972%
12,Cc1c(NC(=O)COC(=O)c2ccccc2Cl)c(=O)n(-c2ccccc2)n1C,-0.103%
13,O=C(NNC(=O)C1CCCCC1)c1ccco1,27.6%
14,CC(C)(C)OC(=O)N1CCC(NC(=O)c2nc[nH]c2C(=O)N2CCc3ccccc3C2)CC1,3.96%
15,CC1C/C(=N\NC(=O)c2ccc([N+](=O)[O-])cc2)CC(C)(C)C1 (stereo not shown),0.803%
16,COc1ccc(OC)c(S(=O)(=O)NCC(c2ccco2)N2CCc3ccccc32)c1 (stereo not shown),-5.26%
17,N=C1/C(=C\c2ccc(Br)o2)C(=O)N=C2SC(CC(=O)N3CCOCC3)=NN12,38.4%
18,CC(C#N)On1c(SC(C)C#N)nc2ccccc2c1=O (stereo not shown),0.0058%
19,O=C(Cn1cc(/C=N/NC(=O)c2cccc(C(F)(F)F)c2)c2ccccc21)Nc1ccc(F)cc1,13.7%
20,COc1c2ccoc2cc2oc(C)cc(=O)c12,8.22%
21,Cc1cccc2c(=O)c(-c3ccc4c(c3)OCO4)c(NC(=O)c3ccco3)oc12,9.32%
22,O=C1CC(c2ccccc2)CC(=O)N1c1ccccc1,2.75%
